For assay [1], the system named is CXCR6-overexpressed CHO-K1 cells. The experiment in a line: transwell migration assay toward rhCXCL16. The settings on record: 100 ng/mL rhCXCL16 in lower chamber, 4-5 h; FIG. 2A. The format is cell-based. How it is done:
CXCR6 is a receptor for chemokine CXCL16 and cells harboring CXCR6 migrate in response to CXCL16. Therefore, to evaluate the activity of CXCL16 antibody in inhibiting cell migration induced by CXCL16 and CXCR6 interaction, transwell migration assays were performed. A polycarbonate membrane with a pore size of 8 μm (Corning, NY, USA) was pre-coated with gelatin, and the membrane was placed into a 24-well plate. The membrane separated each well into an upper chamber and a lower chamber. The upper chamber was plated with CXCR6-overexpressed CHO-K1 cells. The lower chamber was filled with media containing 100 ng/mL rhCXCL16. After 4-5 h, the lower chamber was stained with 1% crystal violet solutions and the numbers of migrated cells on the lower chamber were counted.

Assay [2] concerns the target T1, recombinant human CXCL16 antigen (Homo sapiens, UniProt Q9H2A7).
T1 construct: purchased R&D systems 976-CX
T1 sequence (Q9H2A7 30-118 limits assumed): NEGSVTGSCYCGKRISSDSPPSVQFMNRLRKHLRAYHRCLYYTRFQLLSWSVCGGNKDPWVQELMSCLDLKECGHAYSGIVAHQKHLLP
The experiment in a line: protein-based ELISA on immobilized human CXCL16 antigen. In kind it is binding. As to conditions: antibody 0.001~10 nM; versus control IgG antibody; FIG. 1A. On the procedure: To further characterize the binding affinity of selected 6 of CXCL16 antibodies, the protein-based ELISA was performed. The recombinant human CXCL16 antigen (976-CX, R&D systems, USA) was immobilized onto 96-well plates and incubated for 2 hours at room temperature. Non-specific binding sites were blocked by incubating with 1% BSA in PBS overnight at 4° C. Plates were then washed with PBS. Humanized CXCL16 antibodies at various concentrations (0.001˜10 nM) were incubated with the immobilized antigen for 2 hours at room temperature. After the incubation, the plates were washed, incubated with HRP-labeled anti-human IgG antibody (W4031, Promega, USA) for 0.5 hours, and developed using the substrate solution (DY008B, R&D systems).
For orientation: An ELISA detects its analyte on a solid surface through an enzyme-linked reagent.

Assay [3] concerns Human CD11b+bone marrow myeloid cells. The experiment in a line: two-chamber in vitro model of bone metastasis, cell migration. In kind it is cell-based. As to conditions: FIG. 8B. On the procedure: In some embodiments, the CXCL16 antibodies disclosed herein inhibit bone metastasis of cancer cells. The antibodies activity in inhibiting bone metastasis is assessed with methods well-known in the art. One exemplary method uses a two-chamber system mimicking the metastatic niche of bone. In brief, an upper chamber, which is a mesh insert, is suspended within a lower chamber. The lower chamber contains cancer cells/whole marrow cell co-cultures and CXCL16 enriched fluid, mimicking the microenvironment of the metastatic niche of bone. The upper chamber harbors pre-osteoclasts from the bone marrow (for example, Human CD11b+bone marrow myeloid cells). Typically, pre-osteoclasts differentiate into osteoclasts, which support tumor formation in the metastatic niche of the bone. Inhibiting pre-osteoclasts migration thus could effectively block tumor progression in the metastatic niche of the bone, i.e., inhibiting bone metastasis. After contacting the cells in the upper chamber with the CXCL16 antibody, cells retained in the upper chamber (aka, the mesh of the insert) are counted; the number of these cells positively correlates with the ability of the antibodto inhibitng cell recruitment into the metastatic niche:
A two-chamber system was set up to resemble the metastatic niche of bone. A lower chamber contains a conditioned medium (CM) of cancer cells/whole marrow cell co-cultures (called co-CM), which is CXCL16 enriched. CM from cancer cell cultures alone is used for control, referred to as single-CM. Single-CM contains negligible concentrations of CXCL16. An upper chamber (using insert) harboring cells that can be recruited into the metastatic chambers. Human CD11b+bone marrow myeloid cells were treated with the CXCL16 antibodies for one hour, and the treated cells were added to upper chamber. After 4 hr, the insert (aka. the upper chamber) was harvested and cells in the insert were stained and the ability of the CXCL16 antibody in inhibiting cell recruitment into the metastatic niche were assessed.

The subject of assay [4] is Akt phosphorylation. The experiment in a line: rhCXCL16-induced Akt phosphorylation in cancer cells (western blot). The format is cell-based. As to conditions: 100 ng/ml rhCXCL16 30 minutes, 10 μg/mL antibody; thyroid, breast and prostate cancer cells; FIG. 3. On the procedure:
The CXCL16-CXCR6 interaction activates intracellular Akt signaling pathway, which promote cell migration. This experiment was designed to evaluate the ability of CXCL16 antibodies in blocking the Akt signaling induced by the CXCL16-CXCR6 interaction. Cancer cells were treated with 100 ng/ml of rhCXCL16 (976-CX, R&D systems) for 30 minutes in the presence of 10 μg/mL of humanized CXCL16 antibody (HC4LC1, HC5LC1. HC5LC2. HC5LC3. or HC5LC5) or control antibody (MAB976. R&D Systems, Minneapolis, MN). Cell lysates were harvested. Anti-pAkt (dilution ratio 1:1000, #9102; Cell Signaling), anti-Akt (dilution ratio 1:1000, #4370; Cell Signaling), and anti-β actin antibodies (dilution ratio 1:10,000, STJ91464, St John's laboratory, UK) were used. […] HCSLC2.

Assay [5] addresses T2, Recombinant human CXCL16 (rhCXCL16) protein (Homo sapiens, UniProt Q9H2A7).
T2 sequence (Q9H2A7 30-118): T1 sequence (Q9H2A7 30-118 limits assumed)
The experiment in a line: bio-light interferometry (ForteBio) binding analysis. On the procedure: The binding characteristics of 25 CXCL16 antibodies were analyzed using the bio-light interferometry (ForteBio). All antibodies were diluted in freshly prepared running buffer. Antibodies were immobilized onto the surface of a series of biosensors using the capture methods at 0.3 μg/mL. Recombinant human CXCL16 (rhCXCL16) protein (100 nM) was passed over the surface to generate a binding response for 10 minutes. Binding data for the antibody and antigen interactions were collected at 25° C. on the biosensors. Then, the running buffer was passed for 10 minutes to dissociate them. The association constant (ka) and the dissociation constant (ka) were observed, and the equilibrium binding constant (KD) was calculated. […] R2: The value indicating how well the fit and experimental data correlate; X^2: The measure of error between the experimental data and fitted line.
A general note: Biolayer interferometry detects binding as a change in optical thickness at a sensor tip.

Assay [6] has as its system thyroid cancer cell BHP10-3M. The experiment in a line: transwell migration assay toward co-CM. In kind it is cell-based. As to conditions: antibody 10-100 μg/mL, 6 hours, FIG. 2B. How it is done: To evaluate that blockage of CXCL16 could lead to inhibit cancer cell migration. transwell migration assay was performed. For assay, 8 μm pore-size polycarbonate membrane (Corning, NY, USA) was used. A polycarbonate membrane with a pore size of 8 μm (Corning, NY, USA) was pre-coated with gelatin, and the membrane was placed into a 24-well plate. The membrane separated each well into an upper chamber and a lower chamber. CXCL16 antibody (at 10-100 μg/mL) was preincubated in the upper and lower chamber for 0.5 hours. The upper and lower chamber were plated with thyroid cancer cell BHP10-3M (1×10^5/100 μL) and co-culture conditioned medium (0.5× co-CM), respectively.
The co-CM is the conditioned medium obtained from co-culture of BHP 10^-3M and THP-1 cells. The BHP10-3M cells were seeded on 100 mm culture dishes with 3×10^6 cells in 10 ml of RPMI1640 medium. After 24 hours incubation, THP-1 cells were seeded additionally with 6×10^6 cells. After then, 10 μL of 5 mM PMA stock solution (V1171, Promega) to 10 mL of RPMI medium to make 5 μM PMA. It induced the macrophage differentiation. After 24 hours incubation, the conditioned medium obtained from the co-culture of thyroid cancer cells and macrophages (co-CM) were collected, and it was rich in CXCL16. After 6 hours of incubation of thyroid cancer cells in the upper chamber and co-CM in the lower chamber, the lower chamber was stained with 1% crystal violet solutions and the numbers of migrated cells were counted. […] Sec FIG. 2B.

Where [7] appears, read: antibody captured on biosensor, rhCXCL16 100 nM, 25° C., ND = signal was not detectable.

A value given as a limit tells only on which side of the number the result lay.

B1: HC5LC5: humanized CXCL16 antibody, VH SEQ ID NO: 5, VL SEQ ID NO: 10; heavy chain SEQ ID NO: 42, light chain SEQ ID NO: 47 (antibody)
heavy: EVQLVESGGGLVQPGGSLKLSCAASGFTFSNAVMNWVRQASGKGLEWVARIRTKPNNYATFYADSVKGRFTFSRDDSKNTAYLQMNSLKTEDTAMYYCTAWTTEGIYWGQGTLVTVSS[human IgG1 constant region left out]
light: DIVMTQSPSSLAVSAGERATINCKSSQSLLYSGNQKNYLAWYQQKPGQSPKLLIYWASTRQSGVPDRFIGSGSGTDFTLTISSLQAEDVAIYYCQQYYDTPWTFGGGTKLELKRTVAAPSVFIFPPSDEQLKSGTASVVCLLNNFYPREAKVQWKVDNALQSGNSQESVTEQDSKDSTYSLSSTLTLSKADYEKHKVYACEVTHQGLSSPVTKSFNRGEC
On to B1, for which the “migration of CXCR6-overexpressed CHO-K1 cell from upper chamber to the lower chamber” value in assay [1] is on record as “inhibited the migration”. In assay [2], the “binding affinity to human CXCL16 (ELISA)” value is “significantly higher than a control IgG antibody”. In addition, the “chemotaxis and migration (migration of CD11b+ cells)” value in assay [3] was “inhibits chemotaxis and migration”. In addition, the “Akt phosphorylation activated by rhCXCL16” value in assay [4] is given as “abrogate the Akt phosphorylation”. Moreover, in assay [5] (setting [7]), the ka was 1.82E+04 m^−1s^−1 and the kd was less than 1e-07 s⁻¹. Further, the “binding to human CXCL16” value in assay [5] (in words) is reported as “strong binding”. Further, the “cell migration into the lower chamber of BHP10-3M cells” value in assay [6] is on record as “decreased the migration”.

The record behind these values is patent US20240327509A1, “HUMAN CXCLI6 ANTIBODIES AND THE USE THEREOF” (CELLUS,INC., priority 2021, published 2024).
